Results published in PubChem BioAssay (Tox21).
Where “and” joins values, the source holds several entries; their conditions need not be identical. Equal values may be shown once. Inconclusive means that the source gave no clear call. Such entries were picked first, then a sample of the others. A potency beside an inconclusive call is a rough fit, not a confirmed value. Calls of active or inactive are those of the source. Calls follow the shape of the dose curve; as a rule, active = well fitted cell-killing curve with a large enough effect in the repeat runs; inconclusive = weak or mixed curves, or effect the other way; inactive = flat fitted curve, though single readings scatter.

experiment: qHTS RealTime-Glo MT Cell Viability Assay in HEK293 cells - 24 hour (AID 1224886); details: RealTime-Glo luminescence; series mostly up to 76.8 µM; activity change, negative = cytotoxicity: at the top concentration; as to activity change, negative = cytotoxicity: top concentration of the series differs between compounds
Procedure, shortened: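 Homogeneous bioluminescent viability format in HEK293 cells (600 cells/well). Following 5 h at 37 C/5% CO2, 23 nL compound was pintooled; the signal was measured repeatedly during 40 h incubation.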
% is scaled to controls: 0 for no effect and ±100 for the full control effect; potency is read from the fitted curve at half-maximal effect; tags tell the direction and shape of the fitted curve.
Also: nearly all actives have a fitted effect of over 50% in size.

SMILES	Potency
CC1(C)O[C@@H]2C[C@H]3[C@@H]4C[C@H](F)C5=CC(=O)CC[C@]5(C)[C@H]4[C@@H](O)C[C@]3(C)[C@]2(C(=O)CO)O1	inactive
CC(C)OC(=O)c1cc2c(OCC(O)CNC(C)(C)C)cccc2[nH]1 (configuration not stated)	active: 9.52 µM
CCCCOC(=O)c1ccc(O)cc1	inconclusive: 23.9 µM [cytotoxic, partial curve, poor fit]
CN(C)c1ccc(C(=N)c2ccc(N(C)C)cc2)cc1	active: 3.42 µM and active: 4.2 µM
COc1ccc(-c2coc3cc(O)cc(O)c3c2=O)cc1	inconclusive: 49 µM [cytotoxic, partial curve]
Oc1ccc2c(c1)-c1ccccc1C2	inconclusive: 54.9 µM [cytotoxic, partial curve, poor fit]
CO[C@@H]1[C@@H](OC)[C@H](C)[C@@](O)(CC(=O)O)O[C@H]1[C@H](C)[C@H]1O[C@@]2(CC[C@@](C)([C@H]3CC[C@@](C)([C@@H]4O[C@@H]([C@H]5O[C@](C)(O)[C@H](C)C[C@@H]5C)C[C@@H]4OC4C[C@H](OC)[C@@H](OC)[C@H](C)O4)O3)O2)C[C@H](O)[C@H]1C (some centres not stated)	active: 3.38 µM
CCCCCc1ccc(O)cc1	inconclusive: 34.7 µM [cytotoxic, partial curve]
CC1=Nc2ccc3ccccc3c2C1(C)C	inconclusive: 43.6 µM [cytotoxic, partial curve, poor fit]
NC(=O)C(c1ccccc1)(c1ccccc1)[C@@H]1CCN(CCc2ccc3c(c2)CCO3)C1	inconclusive: 23.9 µM [cytotoxic, partial curve]
COc1cc(Nc2c(C#N)cnc3cc(OCCCN4CCN(C)CC4)c(OC)cc23)c(Cl)cc1Cl	active: 9.52 µM
Cc1nccn1-c1ccc(Sc2cccc(C3(C(N)=O)CCOCC3)c2)cc1	active: 1.38 µM

experiment: qHTS RealTime-Glo MT Cell Viability Assay in HEK293 cells - 8 hour (AID 1224887); details: RealTime-Glo luminescence; series mostly up to 76.8 µM; activity change, negative = cytotoxicity: at the top concentration; as to activity change, negative = cytotoxicity: top concentration of the series differs between compounds
Procedure, shortened: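 Measured as luminescence from the same continuously cultured HEK293 wells at successive time points (0, 8, 16, 24, 32, 40 h) after compound addition. Reagent present from seeding; dosing at 5 h; incubation 37 C.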

SMILES	Potency	activity change, negative = cytotoxicity
CCCCCC(C)OC(=O)COc1ccc(Cl)c2cccnc12 (configuration not stated)	inconclusive: 43.6 µM [cytotoxic, partial curve]	–
c1csc(SSc2cccs2)c1	inconclusive: 54.9 µM [cytotoxic, single point]	–
COc1cc2ncnc(Nc3ccc(F)c(Cl)c3)c2cc1OCCCN1CCOCC1	active: 10.7 µM	–
CCC(=O)c1ccc2c(c1)N(CCCN(C)C)c1ccccc1S2	active: 9.52 µM	–
Nc1cc(Cl)c(N)c(Cl)c1	inactive	–
CCCCOC(=O)c1ccc(O)cc1	inconclusive: 39.4 µM [cytotoxic, partial curve] and inconclusive: 17.4 µM [cytotoxic, full curve]	–
O=C1c2ccccc2C(=O)C1c1nc2ccccc2c(Br)c1O	–	inactive: -15.7%
CN(C)CC/C=C1\c2ccccc2Sc2ccc(Cl)cc21	inconclusive: 23.9 µM [cytotoxic, single point]	–
COc1ccc(-c2coc3cc(O)cc(O)c3c2=O)cc1	inconclusive: 39.2 µM [cytotoxic, partial curve] and inconclusive: 49 µM [cytotoxic, partial curve]	–
Oc1ccc2c(c1)-c1ccccc1C2	inconclusive: 54.9 µM [cytotoxic, partial curve, poor fit]	–
CO[C@@H]1[C@@H](OC)[C@H](C)[C@@](O)(CC(=O)O)O[C@H]1[C@H](C)[C@H]1O[C@@]2(CC[C@@](C)([C@H]3CC[C@@](C)([C@@H]4O[C@@H]([C@H]5O[C@](C)(O)[C@H](C)C[C@@H]5C)C[C@@H]4OC4C[C@H](OC)[C@@H](OC)[C@H](C)O4)O3)O2)C[C@H](O)[C@H]1C (some centres not stated)	active: 8.49 µM	–
CC1=Nc2ccc3ccccc3c2C1(C)C	inconclusive: 54.9 µM [cytotoxic, partial curve]	–
CCCCC(CC)COC(=O)/C=C\C(=O)OCC(CC)CCCC (configuration not stated)	inconclusive: 21.9 µM [cytotoxic, partial curve, poor fit]	–
NC(=O)C(c1ccccc1)(c1ccccc1)[C@@H]1CCN(CCc2ccc3c(c2)CCO3)C1	–	inactive: -23% [at 35.3 µM]
COc1cc(Nc2c(C#N)cnc3cc(OCCCN4CCN(C)CC4)c(OC)cc23)c(Cl)cc1Cl	active: 23.9 µM	–
Cc1nccn1-c1ccc(Sc2cccc(C3(C(N)=O)CCOCC3)c2)cc1	inconclusive: 1.74 µM [cytotoxic, full curve]	–
c1cc(N(CC2CO2)CC2CO2)ccc1Cc1ccc(N(CC2CO2)CC2CO2)cc1 (configuration not stated)	inconclusive: 13.8 µM [cytotoxic, partial curve]	–
C=C1CC[C@H](O)CC1=C/C=C1\CCC[C@]2(C)[C@@H]([C@H](C)/C=C/[C@H](C)C(C)C)CC[C@@H]12	inconclusive: 54.5 µM [cytotoxic, single point] and inconclusive: 43.6 µM [cytotoxic, partial curve]	–
CO[C@H]1C=CO[C@@]2(C)Oc3c(C)c(O)c4c(O)c(c5c(c4c3C2=O)=NC2(CCN(CC(C)C)CC2)N=5)NC(=O)/C(C)=C\C=C/[C@H](C)[C@H](O)[C@@H](C)[C@@H](O)[C@@H](C)[C@H](OC(C)=O)[C@@H]1C	inconclusive: 42.7 µM [cytotoxic, partial curve]	–
O[C@@H](CNC[C@H](O)[C@H]1CCc2cc(F)ccc2O1)[C@@H]1CCc2cc(F)ccc2O1	active: 21.3 µM	–
